# Data from ChEMBL document CHEMBL5308541, “MAIP: An Open-Source Tool to Enrich High-Throughput Screening Output and Identify Novel, Druglike Molecules with Antimalarial Activity” (ACS Med Chem Lett, 2023).
# In all, about 150,000 compounds went through this assay and about 540 (0.36%) showed an effect of 50% or more. This is one part of the list.
# Test system: Plasmodium falciparum
# Test: Primary screen in NF54 nanoGlo assay, in single point, at 2uM, 72h; a lower Z score goes with more inhibition
# Type: functional, Erythrocyte
# Details: timepoint 72 hour
SMILES,% Inhibition [%],Z score
COC(=O)c1nc(Nc2cccc(Cl)c2)oc1N,-4,0.7
CC(=O)Nc1ccc2nc(CNCCNc3ccncc3C)ccc2c1,-5,0.96
c1ccc([C@H]2CCN(CCNCc3cccc4cc[nH]c34)C2)cc1,-1,0.27
CC1CN(c2ccc(Nc3ncnc4ccccc34)cc2F)CC(C)O1 (configuration not stated),-12,2.5
c1cnc2[nH]cc(C3CCN(c4ccc5nccn5n4)CC3)c2c1,9,-1.51
Cc1cc(CC2CN(CCCN3CCN(c4cccc(Cl)c4)CC3)CC2O)on1 (configuration not stated),-6,1.34
CN(CCNC(=O)[C@H](Cc1cn(Cc2ccccc2)cn1)NC(=O)OC(C)(C)C)C1CC1,5,-0.8
OCC[C@H]1CN(c2ncnc3c2CCNCC3)CCN1CC1CC1,3,-0.6
O=C(Cc1c[nH]c2ncccc12)Nc1scnc1-c1ccccc1,9,-1.83
Nc1cc(N2CCC(N3CCN(CCc4ccccc4)CC3)C(O)C2)nc(N)n1 (configuration not stated),-12,1.89
CC(C)c1n[nH]c(C(N)=O)c1NC(=O)c1ccnc(C(F)(F)F)c1,-11,2.1
O=C(c1ccc(NCc2ccccc2-c2ccc(CN3CCCC3)cc2)nc1)N1CCCC1,-2,0.33
C[C@H](NC1CCC(C(=O)OC(C)(C)C)CC1)c1ccc(N2CCN(C)CC2)cc1 (some centres not stated),4,-0.78
CC[C@@H](c1ccccc1)N(CC(=O)OC)C(=O)COCc1nc(C)no1,-10,1.73
CCCN(CCN1CCN(CC)CC1)c1nc(-c2ccccn2)nc2c1CCC2,31,-6.76
COCCN(CC1CCCN2CCCCC12)C(=O)c1cc(-c2c(C)nn(C)c2C)[nH]n1 (configuration not stated),-6,0.95
Cc1ccccc1-c1cccc(CN2CC(CO)C(CN3CCOCC3)C2)c1 (configuration not stated),3,-0.55
CCN(C)CC1CN(c2nc(-c3ccccc3)nc3ccccc23)CC1CO (configuration not stated),-3,0.56
Cc1ccc(F)c(OCC(=O)N2CCS(=O)(=O)C3COCCC32)c1 (configuration not stated),-16,2.47
CN1CCN(c2ncc(CN3CCN(C(=O)OC(C)(C)C)Cc4ccccc43)cn2)CC1,-5,0.78
Cc1ccc(-c2ccnc(N3CCCN(Cc4ccncc4)CC3)n2)c(C)n1,-8,1.65

SMILES,% Inhibition [%],Z score
CCCN1CCN([C@@H](C)CCCN(C(=O)c2cnn3ccc(C)nc23)C2CC2)CC1,0,0.07
CC(C)Cn1cc(-c2nc(-c3ccc(OCC(F)F)nc3)no2)cn1,3,-0.57
CCN1CC[C@H](NC(=O)N2CCN(c3ccncc3C)CC2)C1,0,0.07
C1CCC(CCN2CCCN(C3CCOCC3)CC2)C1,-1,0.16
Cn1c(NC[C@@H](c2ccccc2Cl)N2CCOCC2)nc2ccccc21,-7,1.53
Cc1cc(N2CCC(N(C)Cc3nc4ccccc4c(=O)[nH]3)CC2)nc(N)n1,-1,0.15
CC[C@H]1COC(C)(C)CN1C(=O)COc1ccc(C)cc1C,-9,1.62
CCNc1ccc(-c2cc(CN(C)C)ccc2F)cn1,-7,1.49
O=C(NCCCO)c1ccc(NCc2nc(-c3ccoc3)no2)cc1,0,-0.05
Cc1nc([C@H](C)N(C)C(=O)c2ccc3nc(C4CCCCC4)oc3c2)c(C)s1,-1,0.25
CC(C)(C)OC(=O)NC1CCN(CC(=O)NCCNc2ncnc3sccc23)CC1,-4,0.62
CN1CCC(N2CCC[C@H](C(=O)N3CCN(c4ccc5nccn5n4)CC3)C2)CC1,-2,0.42
COc1ccc2oc(CNCCc3nc(C)cs3)cc2c1,-5,0.82
CC(C)(C)OC(=O)N1CC(O)C(CNCCCCc2cccc(C(F)(F)F)c2)C1 (configuration not stated),0,0.08
Cn1cc(CNCC2(N3CCOCC3)CCCC2)c(-c2ccc3c(c2)OCCO3)n1,-3,0.64
CN1CCN(C[C@H](Nc2ncnc3[nH]ncc23)c2ccccc2)CC1,-3,0.56
COCCC[C@H]1CCCN(C2CCN(c3ccc(-c4cc[nH]n4)cc3)CC2)C1,4,-0.63
CC(C)(C)OC(=O)N1CCC[C@H](CCN2CCN(CCOc3ccccc3)CC2)C1,-14,2.78
Nc1ccnc2ccc(-c3ccc(C(=O)NCC4CCOCC4)cc3)cc12,83,-16.44
CCc1ccc(CCN(C)[C@@H](C)CS(C)(=O)=O)cc1,-2,0.31
